From US20220411514A1, “ANTI-GAL3 ANTIBODIES AND METHODS OF USE FOR INSULIN RESISTANCE” (TrueBinding, Inc., priority 2021, published 2022)

Biological target: T1, Human Gal3 peptides (Homo sapiens, UniProt P17931)
T1 construct: purchased LifeTein custom order
Test: Gal3 peptide binding ELISA (Example 8)
Details: antibody 5 μg/mL
Protocol: Gal3 peptide binding activity of additional exemplary anti-Gal3 antibodies was assessed with the same peptides as described in FIG. 18 (SEQ ID NOs: 3-26). Human Gal3 peptides (LifeTein, custom order) and human Gal3 proteins (R&D Systems, 8259-GA; TrueBinding, QCB200349) were diluted in PBS (Corning, 21-030-CM) to concentrations of at least 100 μg/mL (peptides) or 1 μg/mL (proteins), and added to the wells of several 96-well ELISA plates (Thermo Fisher, 44-2404-21). After incubating the plates at 4° C. overnight, the plates were washed three times with PBST (PBS with 0.05% Tween 20 [VWR, 0777]). The plates were then blocked for an hour with 2% BSA (EMD Millipore, 126609) in PBST at room temperature with gentle rocking. Thereafter, the 2% BSA in PBST was discarded and Gal3-binding antibodies (reformatted hIgG4 [S228P]) were diluted in 2% BSA in PBST to concentrations of 5 μg/mL and added to the wells. The plates were incubated for an hour at room temperature with gentle rocking and then washed three times with PBST. Afterwards, Peroxidase AffiniPure F(ab′)2 Fragment Goat Anti-Human IgG (H+L) polyclonal antibody (Jackson ImmunoResearch, 109-036-003), was diluted in 2% BSA in PBST (1:4000) and added to the wells. The plates were incubated for 1 hour at room temperature with gentle rocking and then washed three times with PBST. TMB substrate (Thermo Scientific, 34029) was then added to each well. The reaction was stopped with 1M HCl (JT Baker, 5620-02) and read using a plate reader (Molecular Devices) at absorbance of 450 nm.

Molecule | binding to Gal3 peptide 2 (SEQ ID NO: 4) | binding to Gal3 peptide 17 (SEQ ID NO: 19) | binding to Gal3 peptide 5 (SEQ ID NO: 7) | binding to Gal3 peptide 6 (SEQ ID NO: 8) | binding to Gal3 peptide 7 (SEQ ID NO: 9)
F849C.8H3: anti-Gal3 antibody (antibody, F849C.8H3 heavy chain peptide sequence; F849C.8H3 light chain peptide sequence, anti-Gal3 antibody) heavy: QVTLKESGPGILQPSQTLSLTCSFSGFSLSTFGMGVGWIRQPSGKGLEWLAHIWWDDDKHYNPALKSRLTISKDTSKNQVFLRIANVDTADNATYYCARIDYGDYVGFAYWGQGTLVTVSAASTKGPSVFPLAPCSRSTSESTAALGCLVKDYFPEPVTVSWNSGALTSGVHTFPAVLQSSGLYSLSSVVTVPSSSLGTKTYTCNVDHKPSNTKVDKRV[in this place human IgG4 Fc with S228P (EU numbers)] light: DIGMRQAAFSNPVTLGTSASISCRSSKSLLYSNGITYLYWFLQKPGQSPQLLIYQMSNLASGVPDRFSSSGSGTDFTLRISRVEADDVGVYYCAQNLELPWTFGGGTKLEIKRTVAAPSVFIFPPSDEQLKSGTASVVCLLNNFYPREAKVQWKVDNALQSGNSQESVTEQDSKDSTYSLSSTLTLSKADYEKHKVYACEVTHQGLSSPVTKSFNRGEC | bound | bound | – | – | –
F846C.1B2: anti-Gal3 antibody (antibody, F846C.1B2 heavy chain peptide sequence; F846C.1B2 light chain peptide sequence, anti-Gal3 antibody) heavy: QIQLVQSGPELKKPGETVKISCKASGYTFTNYGMNWVKQAPGKGLKWMGWINTYTGEPSYADDFKGRFAFSLETSASTAYLQINNLKNEDMATYFCARWGGYAGDYYAMDFWGQGTSVTVSSASTKGPSVFPLAPCSRSTSESTAALGCLVKDYFPEPVTVSWNSGALTSGVHTFPAVLQSSGLYSLSSVVTVPSSSLGTKTYTCNVDHKPSNTKVDKRV[in this place human IgG4 Fc with S228P (EU numbers)] light: NIWLTQSPSSLAVSAGEMVTMTCKSSQSVLYSSNQKNYLAWYQQKPGQSPKLLIYWASTRESGVPDRFTGSGSGTDFSLTISSVQAEDLAVYYCHQYLSSLTFGAGTKLELKRTVAAPSVFIFPPSDEQLKSGTASVVCLLNNFYPREAKVQWKVDNALQSGNSQESVTEQDSKDSTYSLSSTLTLSKADYEKHKVYACEVTHQGLSSPVTKSFNRGEC | – | – | bound | bound | bound
F846C.1H12: anti-Gal3 antibody (antibody, F846C.1H12 heavy chain peptide sequence; F846C.1H12 light chain peptide sequence, anti-Gal3 antibody) heavy: QIQLVQSGPELKKPGETVKISCKASGYTFTNFGMNWVKQAPGKGLKWMGWINTYTGEPSYADDFKGRFAFSLETSASTAYLQINNLKNEDIATYFCARWGGYAGDYYAMDYWGQGTSVTVSSASTKGPSVFPLAPCSRSTSESTAALGCLVKDYFPEPVTVSWNSGALTSGVHTFPAVLQSSGLYSLSSVVTVPSSSLGTKTYTCNVDHKPSNTKVDKRV[in this place human IgG4 Fc with S228P (EU numbers)] light: NIMMTQSPSSLAVSAGQKVTMSCKSSQSVLYSSSQKNYLAWYQQKPGQSPKLLIYWASTRESGVPDRFSGSGSGTDFTLTISSVQPEDLAVYYCHQYLSSLTFGAGTKLELKRTVAAPSVFIFPPSDEQLKSGTASVVCLLNNFYPREAKVQWKVDNALQSGNSQESVTEQDSKDSTYSLSSTLTLSKADYEKHKVYACEVTHQGLSSPVTKSFNRGEC | – | bound | bound | bound | –
F846C.2H3: anti-Gal3 antibody (antibody, F846C.2H3 heavy chain peptide sequence; F846C.1F5/F846C.2H3 light chain peptide sequence, anti-Gal3 antibody) heavy: QIQLVQSGPELKKPGETVKISCKASGYTFTNYGMNWVKQAPGKGLKWMGWINTYTGEPSYADDFKGRFAFSLETSASTAYLQINNLKNEDMATYFCARWGGYDGDYYAMDYWGQGTSVTVSSASTKGPSVFPLAPCSRSTSESTAALGCLVKDYFPEPVTVSWNSGALTSGVHTFPAVLQSSGLYSLSSVVTVPSSSLGTKTYTCNVDHKPSNTKVDKRV[in this place human IgG4 Fc with S228P (EU numbers)] light: NIMMTQSPSSLAVSAGEKVTMSCKSSQSVLYSSNQKNYLAWYQQKPGQSPKLLIYWASTRESGVPDRFTGSGSGTDFTLTISSVQPEDLAVYYCHQYLSSLTFGAGTKLELKRTVAAPSVFIFPPSDEQLKSGTASVVCLLNNFYPREAKVQWKVDNALQSGNSQESVTEQDSKDSTYSLSSTLTLSKADYEKHKVYACEVTHQGLSSPVTKSFNRGEC | – | bound | – | bound | –
F846C.1F5: anti-Gal3 antibody (antibody, F846C.1F5 heavy chain peptide sequence; F846C.1F5/F846C.2H3 light chain peptide sequence, anti-Gal3 antibody) heavy: QIQLVQSGPELKKPGETVKISCKASGYTFTNYGMNWVKQAPGKGLKWMGWINTYTGEPSYADDFKGRFAFSLETSASTAYLQINNLKNEDMATYFCARWGGYDGDYYAMDYWGQGTSVTVSSASTKGPSVFPLAPCSRSTSESTAALGCLVKDYFPEPVTVSWNSGALTSGVHTFPAVLQSSGLYSLSSVVTVPSSSLGTKTYTCNVDHKPSNTKVDKRV[in this place human IgG4 Fc with S228P (EU numbers)] light: NIMMTQSPSSLAVSAGEKVTMSCKSSQSVLYSSNQKNYLAWYQQKPGQSPKLLIYWASTRESGVPDRFTGSGSGTDFTLTISSVQPEDLAVYYCHQYLSSLTFGAGTKLELKRTVAAPSVFIFPPSDEQLKSGTASVVCLLNNFYPREAKVQWKVDNALQSGNSQESVTEQDSKDSTYSLSSTLTLSKADYEKHKVYACEVTHQGLSSPVTKSFNRGEC | – | bound | – | bound | –
9H2.2H10: anti-Gal3 antibody (antibody, 9H2.2H10 heavy chain peptide sequence; 9H2.2H10 light chain peptide sequence, anti-Gal3 antibody) heavy: QVQLQQPGAELVGPGSSVKLSCKASGYTFTNYWIHWVKQRPLQGLEWIGNIDPSDSETHYNQKFKDKATLTVDKSSSTAYMQLSSLTSEDSAVYYCARHGYYDYWGQGTTLTVSSASTKGPSVFPLAPCSRSTSESTAALGCLVKDYFPEPVTVSWNSGALTSGVHTFPAVLQSSGLYSLSSVVTVPSSSLGTKTYTCNVDHKPSNTKVDKRV[in this place human IgG4 Fc with S228P (EU numbers)] light: DIVMTQSHKFMSTSVGDRVSITCKASQDVSTAVAWYQQKPGQSPKLLIYWASTRHTGVPDRFTGSGSGTDYTLTISSVQAEDLALYYCQQHYTTPLTFGAGTKLELKRTVAAPSVFIFPPSDEQLKSGTASVVCLLNNFYPREAKVQWKVDNALQSGNSQESVTEQDSKDSTYSLSSTLTLSKADYEKHKVYACEVTHQGLSSPVTKSFNRGEC | – | – | – | – | bound
